Results: paper PMC9703152 (Journal of hepatology, 2020)
Where “and” joins values, the source holds several entries; their conditions need not be identical. Identical values can stand only once. Like-named read-outs stand apart in the source and are kept apart here.

Tests used:
[1] = tested on: HBVETV-R^L180M/S202G/M204V; assay: microbe, parasite or virus in culture; assay type: cell-based; settings: Hepatitis B virus
[2] = tested on: HBVWT^C2; assay: microbe, parasite or virus in culture; assay type: cell-based; settings: Hepatitis B virus
[3] = tested on: HBVADV-R^A181T/N236T; assay: microbe, parasite or virus in culture; assay type: cell-based; settings: Hepatitis B virus
[4] = tested on: HBVETV-R^L180M/S202G/M204V; assay type: in vivo, PXB-mice; settings: 0.2 mg/kg/day, end of two-week administration
[5] = Huh-7, read-out: IC50^SB_cell (average)
[6] = Huh-7, read-out: IC50^SB_cell (representative image)

SMILES | IC50 [1, 5] | IC50 [1, 6] | IC50 [2, 5] | IC50 [2, 6] | IC50 [3, 5] | IC50 [3, 6] | reduction of serum HBVETV-R^L180M/S202G/M204V-DNA copy numbers [4]
N#C[C@]1(CO)/C(=C\F)[C@@H](n2cnc3c(=O)[nH]c(N)nc32)C[C@@H]1O [E-CFCP] | 77.5 nM | 57.2 nM | 0.7 nM | 0.2 nM | 14.1 nM | 6.2 nM | 2 log and 1.84±0.09 log
C=C1[C@H](CO)[C@@H](O)C[C@@H]1n1cnc2c(=O)[nH]c(N)nc21 [ETV, entecavir] |  | 53100 nM | 16 nM | 7 nM |  | 184 nM | 
CC(C)OC(=O)[C@H](C)N[P@](=O)(CO[C@H](C)Cn1cnc2c(N)ncnc21)Oc1ccccc1 [TAF, tenofovir alafenamide] | 56 nM | 53.7 nM | 37 nM | 25 nM |  | 86.5 nM | 
N#C[C@]1(CO)/C(=C/F)[C@@H](n2cnc3c(=O)[nH]c(N)nc32)C[C@@H]1O [Z-CFCP] |  |  | 938 nM |  |  |  | 
